# Reference: the supplement of paper PMC9135407
# Where “and” joins values, the source holds several entries; their conditions need not be identical. Equal values may be shown once. Where a name gives a salt, the structure may show the parent alone. Screen size: about 5,800 compounds; about 620 (11%) showed activity.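 How the source made its calls: active = score above a cut-off or among the top three wells of a plate; in these data no inactive exceeds 0.85.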 The list shows a part of the results, in another mix than the full data.
# System: primary human hepatic stellate cells (donor 1)
# Experiment: scaled lipid accumulation score (0 = DMSO-like, 1 = nortriptyline-like); higher = stronger HSC inactivation (lipid re-accumulation), active = hit call of the paper
# Conditions: 48 h
# [1] = library stock concentration: 3.33 mM
# [2] = library stock concentration: 80 uM
# [3] = library stock concentration: 400 uM
# [4] = library stock concentration: 2 mM
# [5] = library stock concentration: 10 mM
# [6] = library stock concentration: 1 mM
# [7] = library stock concentration: 4.9 mM
smiles,measurement,setting,value
"Cn1nc2c3c(cccc31)C(=O)c1ccccc1-2 [JNK Inhibitor, Negative Control]",scaled lipid accumulation score,[1],inactive: ≤ 0
C[C@H]1Oc2cc(cnc2N)-c2c(nn(C)c2C#N)CN(C)C(=O)c2ccc(F)cc21,scaled lipid accumulation score,[2],inactive: ≤ 0
same,scaled lipid accumulation score,[3],inactive: ≤ 0
same,scaled lipid accumulation score,[4],inactive: 0.031
same,scaled lipid accumulation score,[5],inactive: ≤ 0
O=c1cc[nH]c(=O)[nH]1 [Uracil],scaled lipid accumulation score,[1],inactive: ≤ 0
same,scaled lipid accumulation score,[5],inactive: ≤ -0.001
O=c1cc[nH]c(=O)[nH]1,scaled lipid accumulation score,[5],inactive: ≤ 0
CCCCCCCCCCCCCCCCCC(=O)NCCO [Stearoyl Ethanolamide],scaled lipid accumulation score,[6],inactive: ≤ 0
Cc1noc(-c2ccc(CSCCC(=O)O)cc2)c1NC(=O)OC(C)c1ccccc1Cl (stereo unspecified),scaled lipid accumulation score,[1],inactive: 0.003
same,scaled lipid accumulation score,[5],inactive: ≤ 0
CC(N)=NCc1cccc(CN)c1,scaled lipid accumulation score,library stock concentration: 20 mM,inactive: ≤ -0.021
COc1ccc(-c2cc(=O)c3c(OC)c(OC)c(OC)c(OC)c3o2)cc1OC [Nobiletin],scaled lipid accumulation score,[1],inactive: ≤ 0
same,scaled lipid accumulation score,[5],inactive: 0.152 and inactive: ≤ 0
CC/C=C\C/C=C\C/C=C\C/C=C\C/C=C\C/C=C\CCC(=O)O [Docosahexaenoic acid(22:6 n-3)],scaled lipid accumulation score,[6],inactive: ≤ -0.021
CC/C=C\C/C=C\C/C=C\C/C=C\C/C=C\C/C=C\CCC(=O)O [Docosahexaenoic Acid],scaled lipid accumulation score,[6],inactive: ≤ 0
CS(=O)(=O)CCNCc1nc(-c2ccc3ncnc(Nc4ccc(OCc5cccc(F)c5)c(Cl)c4)c3c2)cs1.Cl.Cl,scaled lipid accumulation score,[5],active: 1.38
CCC[C@@H]1C[C@@H](C(=O)N[C@@H]([C@H]2O[C@H](SC)[C@H](O)[C@@H](O)[C@H]2O)[C@@H](C)O)N(C)C1 [Lincomycin hydrochloride],scaled lipid accumulation score,,inactive: ≤ 0
same,scaled lipid accumulation score,library stock concentration: 4.5 mM,inactive: ≤ 0
same,scaled lipid accumulation score,[5],inactive: ≤ 0
CCC[C@@H]1C[C@@H](C(=O)N[C@@H]([C@H]2O[C@H](SC)[C@H](O)[C@@H](O)[C@H]2O)[C@@H](C)O)N(C)C1 [Lincomycin],scaled lipid accumulation score,[7],inactive: ≤ -0.006
CCC[C@@H]1C[C@@H](C(=O)N[C@@H]([C@H]2O[C@H](SC)[C@H](O)[C@@H](O)[C@H]2O)[C@@H](C)O)N(C)C1 [Lincomycin HCl],scaled lipid accumulation score,[1],inactive: ≤ 0
same,scaled lipid accumulation score,[5],inactive: ≤ 0
N#Cc1c(Oc2ccc(F)c(NC(=O)Cc3cccc(C(F)(F)F)c3)c2)ccc2nc(NC(=O)C3CC3)sc12,scaled lipid accumulation score,[2],inactive: ≤ 0
same,scaled lipid accumulation score,[3],inactive: ≤ 0
same,scaled lipid accumulation score,[4],inactive: ≤ 0
same,scaled lipid accumulation score,[1],inactive: ≤ -0.009
same,scaled lipid accumulation score,[5],inactive: ≤ 0
CO[C@H]1C[C@@H]2CC[C@@H](C)[C@@](O)(O2)C(=O)C(=O)N2CCCC[C@H]2C(=O)O[C@H]([C@H](C)C[C@@H]2CC[C@@H](OC(=O)C(C)(CO)CO)[C@H](OC)C2)CC(=O)[C@H](C)/C=C(\C)[C@@H](O)[C@@H](OC)C(=O)[C@H](C)C[C@H](C)/C=C/C=C/C=C/1C,scaled lipid accumulation score,[1],inactive: 0.032
same,scaled lipid accumulation score,[5],inactive: 0.094
CN1CCCN=C1/C=C/c1cccs1 [Pyrantel pamoate],scaled lipid accumulation score,[5],inactive: ≤ 0
CN1CCCN=C1/C=C/c1cccs1 [Pyrantel tartrate],scaled lipid accumulation score,,inactive: 0.023
CN1C(C(=O)Nc2ccccn2)=C(O)c2sc(Cl)cc2S1(=O)=O,scaled lipid accumulation score,[5],inactive: ≤ 0
CN1C(C(=O)Nc2ccccn2)=C(O)c2sc(Cl)cc2S1(=O)=O [Lornoxicam],scaled lipid accumulation score,[1],inactive: ≤ 0
same,scaled lipid accumulation score,[5],inactive: ≤ 0
CC12CC3CC(C)(C1)CC(N)(C3)C2,scaled lipid accumulation score,[5],active: 0.869
COc1ccc(-c2cc(=O)c3c(OC)c(OC)c(OC)c(OC)c3o2)cc1 [Tangeretin],scaled lipid accumulation score,[1],inactive: 0.102
same,scaled lipid accumulation score,[5],inactive: ≤ 0
O=C(O)c1ccc(C=C2SC(=S)N(c3cccc(C(F)(F)F)c3)C2=O)cc1,scaled lipid accumulation score,[1],inactive: ≤ -0.009
same,scaled lipid accumulation score,[5],inactive: 0.168 and inactive: 0.026
Nc1ccc(S(=O)(=O)O)cc1.Nc1ccc(S(=O)(=O)O)cc1.[Zn] [Sulfanilate zinc],scaled lipid accumulation score,[7],inactive: ≤ 0
C#C[C@]1(O)CC[C@H]2[C@@H]3CCC4=Cc5oncc5C[C@]4(C)[C@H]3CC[C@@]21C,scaled lipid accumulation score,[5],inactive: 0.336
C#C[C@]1(O)CC[C@H]2[C@@H]3CCC4=Cc5oncc5C[C@]4(C)[C@H]3CC[C@@]21C [Danazol],scaled lipid accumulation score,,inactive: 0.447
same,scaled lipid accumulation score,library stock concentration: 5.9 mM,inactive: 0.204 and inactive: 0.103
same,scaled lipid accumulation score,[5],inactive: ≤ 0
CC(C)c1nc(CN(C)C(=O)N[C@@H](CCN2CCOCC2)C(=O)N[C@H](CC[C@H](Cc2ccccc2)NC(=O)OCc2cncs2)Cc2ccccc2)cs1 [Cobicistat (GS-9350)],scaled lipid accumulation score,[1],inactive: 0.21
same,scaled lipid accumulation score,[5],inactive: 0.044
CCNC(=O)CCC/C=C\C[C@@H]1[C@@H](CC[C@@H](O)CCc2ccccc2)[C@H](O)C[C@@H]1O [Latanoprost ethyl amide],scaled lipid accumulation score,[6],inactive: ≤ 0
Cc1cccc(-c2nn3c(c2-c2ccnc4ccc(C(N)=O)cc24)CCC3)n1,scaled lipid accumulation score,[1],inactive: 0.006
same,scaled lipid accumulation score,[5],inactive: ≤ 0
O=C(Nc1cccnc1)N1CCC(Cc2cccc(Oc3ccc(C(F)(F)F)cn3)c2)CC1,scaled lipid accumulation score,[1],inactive: 0.029
same,scaled lipid accumulation score,[5],inactive: 0.224
CCOc1ccc(Cc2nccc3cc(OCC)c(OCC)cc23)cc1OCC [Ethaverine hydrochloride],scaled lipid accumulation score,,inactive: ≤ 0
same,scaled lipid accumulation score,[5],inactive: ≤ 0
"CCCCCC(=O)CC[C@H]1[C@H](O)CC(=O)[C@@H]1C/C=C\CCCC(=O)O [13,14-dihydro-15-keto Prostaglandin E2]",scaled lipid accumulation score,[6],inactive: ≤ 0
Cc1cc(C)nc(NS(=O)(=O)c2ccc(NC(=S)NC(=O)COc3ccc(Br)cc3Cl)cc2)n1,scaled lipid accumulation score,[1],inactive: ≤ -0.009
same,scaled lipid accumulation score,[5],inactive: ≤ 0
CCCCCCCC/C=C\CCCCCCCC(=O)NCC [Oleoyl Ethyl Amide],scaled lipid accumulation score,[6],inactive: ≤ 0
CCCCc1oc2ccccc2c1C(=O)c1cc(I)c(OCCN(CC)CC)c(I)c1 [Amiodarone HCl],scaled lipid accumulation score,[1],inactive: 0.394
CCCCc1oc2ccccc2c1C(=O)c1cc(I)c(OCCN(CC)CC)c(I)c1 [Amiodarone hydrochloride],scaled lipid accumulation score,,inactive: 0.445
same,scaled lipid accumulation score,library stock concentration: 2.9 mM,inactive: 0.417
CCCCc1oc2ccccc2c1C(=O)c1cc(I)c(OCCN(CC)CC)c(I)c1,scaled lipid accumulation score,library stock concentration: 7.3 mM,inactive: 0.281
same,scaled lipid accumulation score,library stock concentration: 9.5 mM,active: 1.34
CCCCc1oc2ccccc2c1C(=O)c1cc(I)c(OCCN(CC)CC)c(I)c1 [Amiodarone],scaled lipid accumulation score,library stock concentration: 3.1 mM,inactive: 0.438
O=c1[nH]c(=O)n([C@H]2C[C@H](O)[C@@H](CO)O2)cc1I [Idoxuridine],scaled lipid accumulation score,,inactive: 0.038
same,scaled lipid accumulation score,[1],inactive: 0.015
same,scaled lipid accumulation score,[5],inactive: 0.006
O=c1[nH]c(=O)n([C@H]2C[C@H](O)[C@@H](CO)O2)cc1I,scaled lipid accumulation score,[5],inactive: ≤ 0
N[C@@H](COP(=O)(O)O)C(=O)O,scaled lipid accumulation score,[5],inactive: ≤ 0
N[C@@H](COP(=O)(O)O)C(=O)O [O-Phospho-L-serine],scaled lipid accumulation score,[5],inactive: 0.167
Cc1cccc(N(C)C(=S)Oc2ccc3ccccc3c2)c1 [Tolnaftate],scaled lipid accumulation score,,inactive: 0.12
same,scaled lipid accumulation score,[1],inactive: 0.03
same,scaled lipid accumulation score,[5],inactive: ≤ 0
O=C(O)c1cc2cc(F)ccc2[nH]1 [5-Fluoroindole-2-carboxylic acid],scaled lipid accumulation score,[5],inactive: ≤ 0
NC(C(=O)O)c1ccc(C(=O)O)c(C(=O)O)c1 (stereo unspecified),scaled lipid accumulation score,[5],inactive: ≤ -0.006
CC(C)N(CCC(=O)c1ccc2ccccc2c1)Cc1ccccc1.Cl,scaled lipid accumulation score,[5],active: 0.966
CN(C(=O)CCCOc1ccc2[nH]c(=O)ccc2c1)C1CCCCC1 [Cilostamide],scaled lipid accumulation score,library stock concentration: 5.8 mM,inactive: ≤ 0
same,scaled lipid accumulation score,[5],inactive: 0.154 and inactive: 0.019
NNC(=O)c1ccncc1 [Isoniazid],scaled lipid accumulation score,,inactive: 0.025
same,scaled lipid accumulation score,[1],inactive: 0.054
same,scaled lipid accumulation score,[5],inactive: ≤ 0
CN1CCN(C(=O)c2nc3ccc(Cl)cc3[nH]2)CC1,scaled lipid accumulation score,[5],inactive: 0.076
COc1ccc(Br)cc1S(=O)(=O)NC(=O)/C=C/c1ccccc1Cc1ccc2ccccc2c1,scaled lipid accumulation score,[5],inactive: 0.132 and inactive: 0.029
CC1(C)C=C(CN2C/C(=C\c3ccc(F)cc3)C(=O)/C(=C/c3ccc(F)cc3)C2)C(C)(C)N1O,scaled lipid accumulation score,[1],inactive: 0.264
same,scaled lipid accumulation score,[5],inactive: 0.694
"CCC(=O)OCC(=O)[C@@]1(OC(=O)CC)[C@@H](C)C[C@H]2[C@@H]3CCC4=CC(=O)C=C[C@]4(C)[C@@]3(F)[C@@H](O)C[C@@]21C [Betamethasone 17,21-dipropionate]",scaled lipid accumulation score,library stock concentration: 4 mM,inactive: ≤ 0
CC1(C)O[C@@H]2C[C@H]3[C@@H]4C[C@H](F)C5=CC(=O)CC[C@]5(C)[C@H]4[C@@H](O)C[C@]3(C)[C@]2(C(=O)CO)O1 [Flurandrenolide],scaled lipid accumulation score,,inactive: ≤ 0
same,scaled lipid accumulation score,[5],inactive: ≤ 0
Cc1ccc(S(=O)(=O)OCC(=O)Nc2ccc(C(=O)O)c(O)c2)cc1,scaled lipid accumulation score,[1],inactive: ≤ 0
same,scaled lipid accumulation score,[5],inactive: ≤ 0
COc1cc(C(=O)NC2CCN(C)CC2)ccc1Nc1ncc2c(n1)N(C1CCCC1)CCC(=O)N2C(C)C,scaled lipid accumulation score,[5],active: 0.868
O=C(O)CCCN1CCC(O[C@@H](c2ccc(Cl)cc2)c2ccccn2)CC1 [Bepotastine Besilate],scaled lipid accumulation score,[1],inactive: ≤ 0
same,scaled lipid accumulation score,[5],inactive: ≤ 0
CNc1nccc(-c2cccnc2Oc2cc(C(=O)Nc3cccc(C(F)(F)F)c3)ccc2C)n1,scaled lipid accumulation score,[5],active: 1.13
"CCN(CC)CCOc1ccc(/C(=C(/Cl)c2ccccc2)c2ccccc2)cc1.O=C(O)CC(O)(CC(=O)O)C(=O)O [Clomiphene citrate (Z,E)]",scaled lipid accumulation score,,active: 0.946
CC[C@]1(O)C[C@H]2CN(CCc3c([nH]c4ccccc34)[C@@](C(=O)OC)(c3cc4c(cc3OC)N(C=O)[C@H]3[C@@](O)(C(=O)OC)[C@H](OC(C)=O)[C@]5(CC)C=CCN6CC[C@]43[C@@H]65)C2)C1.O=S(=O)(O)O [Vincristine sulfate],scaled lipid accumulation score,[5],active: 1.36
